Measurements as given in PubChem BioAssay AID1645887 (National Center for Advancing Translational Sciences (NCATS), 2021).
Values joined by “and” are separate entries in the source; they are usually repeats but may differ in a detail not shown here. Equal entries are not always repeated. Screen size: about 16,000 compounds; about 40 (0.2%) were called active. About 1% were inconclusive and are not listed. The call rests on the fitted dose curve; in most records, active means well fitted activation curve with a large enough effect; inconclusive means small, poorly fitted or top-dose-only effect, or another doubt; inactive means no such curve, though single readings can be large or run the other way. This is one part of the list.

molecular target: Rap guanine nucleotide exchange factor 4 (Homo sapiens) (UniProt Q8WZA2); assay: Validation qHTS for agonist of cAMP-regulated guanine nucleotide exchange factor 4 (EPAC2); conditions: EPAC2 Rap1B BODIPY-GDP exchange, fluorescence; activation: stronger effect = higher value;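 further: exchange makes BODIPY-GDP fluorescence drop when released from Rap1B; series mostly up to about 150 µM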
Chain of UniProt Q8WZA2 (Q8WZA2 whole entry, looked up): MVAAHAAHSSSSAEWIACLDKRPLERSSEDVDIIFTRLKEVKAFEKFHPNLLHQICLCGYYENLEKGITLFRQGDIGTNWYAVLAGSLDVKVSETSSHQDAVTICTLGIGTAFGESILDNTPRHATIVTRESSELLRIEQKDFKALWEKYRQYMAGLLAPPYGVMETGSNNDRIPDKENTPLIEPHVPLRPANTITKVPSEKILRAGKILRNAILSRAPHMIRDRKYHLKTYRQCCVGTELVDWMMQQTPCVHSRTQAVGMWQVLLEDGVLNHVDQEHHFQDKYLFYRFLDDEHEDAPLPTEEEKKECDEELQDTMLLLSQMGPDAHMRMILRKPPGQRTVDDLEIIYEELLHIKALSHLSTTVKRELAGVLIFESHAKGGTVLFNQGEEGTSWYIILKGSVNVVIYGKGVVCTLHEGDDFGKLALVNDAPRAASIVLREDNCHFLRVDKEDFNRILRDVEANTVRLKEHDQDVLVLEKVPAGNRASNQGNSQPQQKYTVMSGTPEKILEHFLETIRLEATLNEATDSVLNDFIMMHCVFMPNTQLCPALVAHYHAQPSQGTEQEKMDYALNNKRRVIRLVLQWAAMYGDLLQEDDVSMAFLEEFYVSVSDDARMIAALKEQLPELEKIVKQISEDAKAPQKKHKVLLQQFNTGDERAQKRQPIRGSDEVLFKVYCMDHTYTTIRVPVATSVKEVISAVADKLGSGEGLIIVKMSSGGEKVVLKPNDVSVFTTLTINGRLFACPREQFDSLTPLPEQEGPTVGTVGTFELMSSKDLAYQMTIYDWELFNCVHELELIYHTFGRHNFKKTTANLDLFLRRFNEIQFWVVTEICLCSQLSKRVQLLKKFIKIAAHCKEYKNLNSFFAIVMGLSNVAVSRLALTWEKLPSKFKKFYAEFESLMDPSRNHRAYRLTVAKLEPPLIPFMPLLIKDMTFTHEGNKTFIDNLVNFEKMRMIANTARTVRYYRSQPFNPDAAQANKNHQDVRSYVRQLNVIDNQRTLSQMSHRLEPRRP
Outline: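 Fluorescent exchange assay: 100 nM EPAC2 with 250 nM RAP1B-BODIPY-GDP and 50 uM GDP; compound added, 5 min at room temperature, then read (ex 480/em 540 nm) every 5 min for 30 min. Normalized to 6.5 mM cAMP agonist control.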
On the % scale 0 is the no-effect control and ±100 the full control effect.

activation, inactive:
C[C@H](NC[C@H](O)CP(=O)(O)Cc1ccccc1)c1ccc(Cl)c(Cl)c1 2.7% and -6.49%, Cc1oc(-c2cccc(NC(=O)c3ccccn3)c2)nc1CNC(=O)c1ccc(C(F)(F)F)cc1 -17.1%, COCC(=O)Nc1cc(C(=O)NC2CCc3ccccc32)c2c(c1)nc(-c1ccncc1)n2C (centres undefined) -24.2%, C=C1CC[C@H](O)CC1=C/C=C1\CCC[C@]2(C)[C@@H]([C@H](C)/C=C/[C@H](C)C(C)C)CC[C@@H]12 -70.8%, Cc1cccc(CNc2ccnc(-c3ccccc3Cl)n2)c1 -10.4%, CN[C@H]1CCc2cc(OC)c(OC)c(OC)c2-c2ccc(N[C@@H]3CCCCNC3=O)c(=O)cc21 -5.73%, NCCC(O)(P(=O)(O)O)P(=O)(O)O -9.23%, COc1ccc(Oc2ncc3nc(C)c(=O)n(-c4ccc(OC)cc4)c3n2)cc1 -20.4%, CC1CCC2(OC1)OC1CC3C4CCC5CC(O)CCC5(C)C4=CCC3(C)C1C2C (centres undefined) 5.96%, CC(C)C[C@@H](CC#N)N1CCN(Cc2ccccc2)CCC1=O -11.1%, CC[C@@H](C)[C@H](N)C(=O)O -29.2%, COCc1ccc(CN2Cc3ccccc3OC(c3ccccc3OC)C2)o1 (centres undefined) 2.14%, Cc1cc2c(c(-c3cnccn3)c1)OC(CNC(=O)c1cc(C(C)C)[nH]n1)C2 (centres undefined) -26.9%, CC(=O)Oc1cc(OC(C)=O)c2c(=O)cc(-c3ccc(OC(C)=O)c(OC(C)=O)c3)oc2c1 -0.746%, C=C1CC[C@H](O)C/C1=C\C=C1/CCC[C@]2(C)[C@@H]([C@H](C)CCCC(C)C)CC[C@@H]12 -70.5%, COc1cccc(-c2cncnc2NCCc2cnc[nH]2)c1 1.28%, COc1cc2nc(N3CCN(C(=O)[C@H]4CCCO4)CC3)nc(N)c2cc1OC -12.7%, Cc1cc(C(C#N)c2ccc(Cl)cc2)c(Cl)cc1NC(=O)c1cc(I)cc(I)c1O (centres undefined) 5.57%, CN1CCN(c2ncc3nc(-c4ccc(Cl)cc4)c(=O)n(CCC#N)c3n2)CC1 -10.1%, c1ccc(Nc2cc(-c3ccoc3)ncn2)cc1 -14.3%, CNC(=O)[C@@H]1C[C@H](Sc2nc3ccccc3[nH]2)CN1Cc1cccc(C(F)(F)F)c1 -5.81%, CC(C[N+](C)(C)C)OC(N)=O (centres undefined) -16.6% and -0.85% and -26.6%, CCCCCCc1ccc(N2C[C@H](CCCCC)[C@@H](CC(=O)NCc3ccccc3)C2=O)cc1 -4.7%, Cc1cc(C(=O)NCc2nc(-c3cccc(NC(=O)c4ccccc4)c3)oc2C)nc(C)n1 -20.5%, C=C[C@](C)(O)CCC1C(=C)CC(OC(C)=O)C2C(C)(C)CCCC12C (some centres undefined) -17%, Cc1nc2cnc(Oc3ccccc3)nc2n(C2CC2)c1=O 9.34%, Cc1cccc(CNC(=O)c2cnn(-c3nccc(-c4cc5ccccc5o4)n3)c2C2CC2)n1 -8.18%, O=S1(=O)[C@H]2C[C@@H]3C=C[C@@]2(CN1Cc1ccc(F)cc1)O3 -13.5%, CN(C)CCCC1(c2ccc(F)cc2)OCc2cc(C#N)ccc21 (centres undefined) -12.2%, Nn1nnc2ccccc21 -18.1%, COc1cccc(Nc2ncc3nc(-c4cccs4)c(=O)n(C[C@H]4CCCO4)c3n2)c1 7.92%, CN1CCN(c2ncc3nc(-c4ccc(Cl)cc4)c(=O)n(C4CC4)c3n2)CC1 -0.224%, CC(C)[N+](C)(C)CC(O)COc1cccc2ccccc12 (centres undefined) -12.1%, CCCC(CCC)C(=O)O 4.12% and -5.36% and -5.48%, CCCCCCCC/C=C\CCCCCCCCN -15%, CC(C)=CCc1c2c(c(O)c3c(=O)c(O)c(-c4ccccc4)oc13)C=CC(C)(C)O2 -22.9%, O=C(O)c1ccc(NC2OC[C@@H](O)[C@H](O)[C@H]2O)cc1 (some centres undefined) -17.9%, COc1cccc(-c2cc(N(C)Cc3ccco3)ncn2)c1 -1.38%, CCCNC(=O)N1N=C(c2ccc(N)cc2)c2cc3c(cc2[C@H]1C)OCO3 -14.7%, Cc1ncc2c(c1CNS(=O)(=O)c1cccs1)CCN(C(=O)/C=C/c1cc(F)cc(F)c1)C2 4.69%, CO -11.5%, CNC(=O)C[C@@H](N)C(=O)N[C@@H](C(=O)N[C@@H]1C(=O)N2[C@@H]1SC(C)(C)[C@@H]2C(=O)O)c1ccc(O)cc1 2.53%, CC(C)(C)C1CCC(=O)N(CCC#N)CC1 (centres undefined) -4.04%, CN1CCN(c2ncc3ncc(=O)n(C[C@H]4CCCO4)c3n2)CC1 -6.51%, O=C(O)CNC(=O)C(CS)Cc1ccccc1 (centres undefined) -7.2% and -15.7%, N#Cc1ccc(CN2CCC3(CC2)CCN(C(=O)c2cc(C(F)(F)F)cc(C(F)(F)F)c2)CC3)cc1 -29.5%, C#C[C@]1(O)CC[C@H]2[C@H]3CCC4=Cc5oncc5C[C@]4(C)[C@@H]3CC[C@]21C -18.3%, COc1ccc(CNC(=O)[C@@H]2CC=C[C@@H]3CCN(Cc4ccccc4)C(=O)[C@@H]32)cc1 -0.865%, NCCC(=O)O -18.9% and -6.24%, O=C1/C(=C/c2ccsc2)CC/C1=C\c1cccs1 -3.6%, Cc1ccccc1-c1nc(NCCN2CCOCC2)c2ccccc2n1 -10.2%, CCNc1ncc2ncc(=O)n(C[C@H]3CCCO3)c2n1 -17.5%, COc1cc(CNCc2cc3cc(C)ccc3nc2-c2ccc(F)cc2)cc(OC)c1OC -14.9%, O=C(NCC1Cc2cc(-c3cncnc3)cc(Cl)c2O1)c1cccc(Cn2cccn2)c1 (centres undefined) 6.87%, CC(=O)N1CCC2(CC1)CCN(c1ccccn1)CC2 -3.72%, Cc1ccc(CN2CCOCCS2(=O)=O)cc1 -14.2%, COc1ccccc1CNCCCCCCNCCCCCCCCNCCCCCCNCc1ccccc1OC -0.961% and 0.869%, CCCCCCC[n+]1ccc(C)c2ccccc21 -23.7%, CN[C@@H]1CCc2[nH]c3ccc(C(N)=O)cc3c2C1 -5.67%, CC1/C=C/C=C/C=C/C=C/C=C/C=C/C=C/C(OC2OC(C)C(O)C(N)C2O)CC2O[C@@](O)(CC(O)CC(O)C(O)CCC(O)CC(O)CC(=O)OC(C)[C@H](C)C1O)CC(O)C2C(=O)O (some centres undefined) -10.9%, CC(=O)Nc1ccc(SC[C@H](Cc2ccccc2)N2CC[C@@H](C)CCC2=O)cc1 -19.1%, O=C(Nc1ccccc1)N1CC[C@@]2(CCCN(C(=O)c3ccco3)C2)C1 2.11%, CC(C)CN1CCC2(CC1)CCN(C(=O)c1cc(C(F)(F)F)cc(C(F)(F)F)c1)CC2 -16.3%, COc1ccc(Oc2ncc3ncc(=O)n(C[C@H]4CCCO4)c3n2)cc1 -9.53%, COc1ccc2c(c1)CCc1cnc(-n3ncc(C(=O)NCCCN4CCOCC4)c3C)nc1-2 -14.6%, COc1cccc(N2[C@@H](CC(=O)O)c3ccc(/C=C/C(=O)O)cc3S2(=O)=O)c1 -4.78%, CCC1(C2CCN(Cc3ccc(C)s3)CC2)NC(=O)N(CC2COc3ccccc3O2)C1=O (centres undefined) -26.4%, Nc1nc2ncc(=O)[nH]c2c(=O)[nH]1 -3.53%, Cc1ccccc1C1(CC(=O)N2CCN(C)CC2)CC(=O)N(Cc2ccncc2)C1=O (centres undefined) -24.4%, Oc1cccc(O)c1O -18.8%, COC1=CC(=O)C[C@@H](C)[C@]12Oc1c(Cl)c(OC)cc(OC)c1C2=O -9.49% and 4.92%, COc1ccc(/C=C/c2cc(OC)c(OC)cc2CC[N+](C)(C)C)cc1 -19.4%, Cn1cc(-c2nc3cnc(N4CCOCC4)nc3n(CCC#N)c2=O)c2ccccc21 -13.1%, N#Cc1ccccc1OC[C@H](O)CNCCNC(=O)Nc1ccccc1 -18.4%, COc1cccc(-n2c(SC)nnc2C2CCN(CCC(C)c3ccc(C)o3)CC2)c1 (centres undefined) -10.5%, C=CCN1CC[C@@H](O)C(=C)S1(=O)=O -18.7%, COc1cc(=O)n(C)c2c(OCC(O)C(C)(C)O)cccc12 (centres undefined) -12.5%, COc1ccc(CNc2ncncc2-c2c(C)noc2C)c(OC)c1 1.12%, Cc1ccc2nc(SCC(=O)NCC3Cc4cccc(-c5nc(C)cnc5C)c4O3)[nH]c2c1 (centres undefined) 2.47%, COc1c2c(cc3occ(-c4ccc5c(c4)OCO5)c(=O)c13)OC(C)(C)C=C2 -2.34%, CC(C)(C)c1cc(/C=C(\C#N)C(N)=S)cc(C(C)(C)C)c1O 15.4% and 14.5% and -44.4%, COc1ccc(C(=O)NCCc2nnc3n2CCN(CC2CC=CCC2)CC3)cc1 (centres undefined) -5.39%, COc1ccc(SC[C@H](C)CN2CC[C@H](C(C)(C)C)CCC2=O)cc1 -53.1%, Cc1cnc(CNc2cc(-c3ccccc3C(F)(F)F)ncn2)cn1 -12.1%
